Experimental data from PubChem BioAssay (NCATS).
The other results are listed elsewhere or left out. These are further read-outs of the screen, such as a control signal, another cell line or another target. No call is given for them. The list favours compounds with an active or inconclusive main result. Words in brackets tell the shape of the fitted curve; partial curves, single points and poor fits give uncertain potencies.

Assay: qHTS Assay for Lipid Storage Modulators (AID 1519)
Details: Drosophila S3 cells, BODIPY lipid droplet/cell ratio, laser cytometry, cells loaded with oleic acid
Procedure, shortened: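 Cells seeded at 5,000 per well were treated with compounds over a concentration series and loaded with oleic acid (400 uM, as added). Lipid droplet fluorescence (488 nm excitation, 500-530 nm channel) was read by laser-scanning cytometry and normalized to 20 uM Triacsin C.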

[1] = measured here: cell count channel max response
[2] = measured here: cell number channel AC50
[3] = measured here: lipid channel max response
[4] = measured here: lipid (BODIPY) channel AC50
Tags describe the fitted curve by direction and shape.

Compound: N#Cc1cccc(-c2nc3cnc(Nc4ccccc4)nc3n(C[C@H]3CCCO3)c2=O)c1
- max response [1]: 11.7%
- AC50 [2]: 5.01 nM [rising, full curve, poor fit]
- max response [3]: -11.9%

Compound: COc1ccc(-c2coc3c(OC)c(OC)cc(O)c3c2=O)cc1
- max response [1]: 5.77%
- AC50 [4]: 79.4 nM [rising, full curve, poor fit]
- max response [3]: 24.4%

Compound: CN(C)c1ncc2ncc(=O)n(CCc3ccccc3)c2n1
- max response [1]: 2.98%
- AC50 [4]: 447 nM [rising, full curve]
- max response [3]: 1.65%

Compound: Nc1ccc(C(=O)Oc2ccccc2)c(O)c1
- max response [1]: -2.43%
- AC50 [4]: 3550 nM [rising, single point]
- max response [3]: 4.44%

Compound: c1ccc(Nc2ncnc3ccc(-c4ccoc4)cc23)cc1
- max response [1]: 14.3%
- AC50 [4]: 6.31 nM [rising, full curve, poor fit]
- max response [3]: 19.2%

Compound: CN(C)c1ncc2nc(-c3cc(F)cc(F)c3)c(=O)n(Cc3cccs3)c2n1
- max response [1]: 14.7%
- AC50 [2]: 4470 nM [rising, partial curve]
- max response [3]: 20.9%

Compound: Cc1noc(C)c1C(=O)N1CCC2(CC1)CN(c1cccc(-c3ccccc3)c1)C2
- max response [1]: -9.2%
- AC50 [4]: 20000 nM [falling, single point]
- max response [3]: -43.1%

Compound: N#Cc1ccc(CN2CC3(CCN(C(=O)c4ccncc4)CC3)C2)cc1
- max response [1]: 10.8%
- AC50 [4]: 1780 nM [rising, partial curve, poor fit]
- max response [3]: 8.48%

Compound: COc1cccc(Cn2c(=O)c(-c3cccs3)nc3cnc(N4CCNCC4)nc32)c1
- max response [1]: 13.7%
- AC50 [4]: 631 nM [rising, full curve, poor fit]
- max response [3]: 13.3%

Compound: CS(=O)(=O)N1CCC2(CCCN(c3ncccn3)C2)CC1
- max response [1]: 17.3%
- AC50 [4]: 28.2 nM [rising, full curve, poor fit]
- max response [3]: 25.8%

Compound: N#CCCn1c(=O)c(-c2ccccc2)nc2cnc(Oc3cccc(Cl)c3)nc21
- max response [1]: 13.4%
- AC50 [4]: 5.62 nM [rising, full curve, poor fit]
- max response [3]: 20.8%

Compound: O=c1cnc2cnc(Oc3ccccc3)nc2n1CCc1ccccc1
- max response [1]: 17.6%
- AC50 [4]: 20 nM [rising, full curve, poor fit]
- max response [3]: 26.6%

Compound: COc1ccc(-n2c(=O)c(C)nc3cnc(N4CCNCC4)nc32)cc1
- max response [1]: 25.1%
- AC50 [4]: 70.8 nM [rising, full curve, poor fit]
- max response [3]: 31.1%

Compound: CC(=O)OCC(=O)[C@@]1(O)CCC2C3CCC4=CC(=O)CC[C@]4(C)C3C(=O)C[C@]21C (stereo not given in full)
- max response [1]: 24.3%
- AC50 [4]: 10000 nM [rising, partial curve]
- max response [3]: 39.2%

Compound: COc1ccc(C(=O)N2CCC3(CC2)CCN(c2cccc(-c4ccccc4)c2)CC3)cc1
- max response [1]: 13%
- AC50 [4]: 3980 nM [rising, full curve, poor fit]
- max response [3]: 24.1%

Compound: CS(=O)(=O)Nc1cccc(-c2cncnc2-n2ccnc2)c1
- max response [1]: 26.4%
- AC50 [4]: 2240 nM [rising, full curve]
- max response [3]: 36.2%

Compound: COc1ccc2[nH]cc(CCNc3ccnc(-c4cccc(C#N)c4)n3)c2c1
- max response [1]: 31.2%
- AC50 [4]: 10 nM [rising, full curve, poor fit]
- max response [3]: 38%

Compound: O=c1c(-c2cccs2)nc2cnc(Oc3ccccc3)nc2n1-c1ccccc1
- max response [1]: 36.6%
- AC50 [2]: 2240 nM [rising, full curve]
- max response [3]: -2.57%

Compound: COCC(=O)N1CCC[C@@]2(CCN(Cc3nccs3)C2)C1
- max response [1]: 26.8%
- AC50 [4]: 17800 nM [rising, single point]
- max response [3]: 40.1%

Compound: CC(=O)N1CCC2(CCCN(c3ncccn3)C2)CC1
- max response [1]: 7.35%
- AC50 [4]: 178 nM [rising, full curve, poor fit]
- max response [3]: 16.3%

Compound: NC(=O)c1ncn([C@@H]2O[C@H](CO)[C@@H](O)[C@H]2O)c1O
- max response [1]: 42.8%
- AC50 [4]: 44700 nM [rising, single point]
- max response [3]: 46.8%

Compound: CN(C)c1ccc(O)c2c1C[C@@H]1C[C@H]3C(N(C)C)C(=O)C(C(N)=O)=C(O)[C@@]3(O)C(=O)C1=C2O (stereo not given in full)
- max response [1]: 17.2%
- AC50 [4]: 25100 nM [rising, single point]
- max response [3]: 42.5%

Compound: c1cncc(CNc2ncnc3ccc(-c4ccoc4)cc23)c1
- max response [1]: 19.7%
- AC50 [4]: 5620 nM [rising, full curve, poor fit]
- max response [3]: 22.9%

Compound: Cn1cc(-c2nc3cnc(Oc4ccccc4)nc3n(Cc3cccs3)c2=O)c2ccccc21
- max response [1]: 21%
- AC50 [4]: 631 nM [rising, full curve, poor fit]
- max response [3]: 25.7%

Compound: Cc1ccccc1-c1nc(NC2CCNCC2)c2ccccc2n1
- max response [1]: 28.3%
- AC50 [4]: 3980 nM [rising, full curve]
- max response [3]: 36.5%

Compound: Cc1cccc(CNc2ncncc2-c2ccccc2C)c1
- max response [1]: 23.3%
- AC50 [4]: 56.2 nM [rising, full curve, poor fit]
- max response [3]: 31.4%

Compound: COc1ncc2nc(-c3cn(C)c4ccccc34)c(=O)n(C[C@H]3CCCO3)c2n1
- max response [1]: 16%
- AC50 [4]: 1260 nM [rising, full curve, poor fit]
- max response [3]: 19.4%

Compound: O=C(Nc1cccc(F)c1)N1CC[C@@]2(CCCN(S(=O)(=O)c3ccccc3)C2)C1
- max response [1]: 6.96%
- AC50 [4]: 2510 nM [rising, single point]
- max response [3]: 18.8%

Compound: O=c1c(CCc2ccccc2)nc2cncnc2n1Cc1ccccc1
- max response [1]: 13.1%
- AC50 [4]: 25.1 nM [rising, full curve, poor fit]
- max response [3]: 20.7%

Compound: COc1cccc(-c2cc(=O)c3ccc(OC)cc3o2)c1
- max response [1]: 2.82%
- AC50 [4]: 562 nM [rising, full curve]
- max response [3]: 12.8%

Compound: O=C(c1cnccn1)N1CCC2(CCCN(c3ncccn3)C2)CC1
- max response [1]: 7.66%
- AC50 [4]: 31.6 nM [rising, partial curve, poor fit]
- max response [3]: 18.2%

Compound: Cn1c(=O)c(-c2ccc(F)cc2)nc2cnc(N3CCOCC3)nc21
- max response [1]: 24.2%
- AC50 [4]: 8910 nM [rising, partial curve, poor fit]
- max response [3]: 34.2%

Compound: CC(=O)N1CCC2(CC1)CCN(C(c1ccccc1)c1ccccc1)CC2
- max response [1]: 25.3%
- AC50 [4]: 28200 nM [rising, partial curve, poor fit]
- max response [3]: 37.5%

Compound: Cc1cccc(CNc2nc(-c3ccc(C(=O)N(C)C)cc3)nc3ccccc23)c1
- max response [1]: 0.225%
- AC50 [4]: 1260 nM [rising, partial curve, poor fit]
- max response [3]: 10.6%

Compound: COc1cccc(C=NC=Nc2cccc(OC)c2)c1
- max response [1]: 81.5%
- AC50 [2]: 28200 nM [rising, partial curve]
- max response [3]: 100%

Compound: O=C(Oc1ccccc1)N1CCC2(CCCN(c3ccc(-c4ccccc4)cc3)C2)CC1
- max response [1]: 35.8%
- AC50 [2]: 3980 nM [rising, full curve, poor fit]
- max response [3]: -93%

Compound: Cc1noc(C)c1-c1cncnc1NC1CC1
- max response [1]: 25.5%
- AC50 [4]: 31600 nM [rising, partial curve]
- max response [3]: 36.9%

Compound: CCNc1ncc2ncc(=O)n(Cc3ccc(F)cc3)c2n1
- max response [1]: 17.6%
- AC50 [4]: 2240 nM [rising, partial curve, poor fit]
- max response [3]: 11.6%

Compound: COCC(=O)N1CCC2(CC1)CN(C(=O)Nc1ccccc1)C2
- max response [1]: 17.5%
- AC50 [4]: 20 nM [rising, full curve, poor fit]
- max response [3]: 21.6%

Compound: Cc1noc(C)c1-c1nccc(N(C)Cc2ccco2)n1
- max response [1]: 25.3%
- AC50 [4]: 3160 nM [rising, full curve, poor fit]
- max response [3]: 32.3%

Compound: c1cncc(CNc2cc(-c3ccoc3)ncn2)c1
- max response [1]: 35.8%
- AC50 [4]: 20000 nM [rising, partial curve, poor fit]
- max response [3]: 42.1%

Compound: O=C(O)c1cc2ccccc2[nH]1
- max response [1]: 27.5%
- AC50 [4]: 39800 nM [rising, single point]
- max response [3]: 40.5%

Compound: O=C(c1ccncc1)N1CCC2(CC1)CN(c1ccc(-c3ccccc3)cc1)C2
- max response [1]: -21.7%
- AC50 [4]: 39800 nM [falling, single point]
- max response [3]: -33.7%

Compound: CCNc1ncc2nc(-c3ccc(F)cc3)c(=O)n(-c3ccccc3)c2n1
- max response [1]: 24%
- AC50 [4]: 44.7 nM [rising, full curve]
- max response [3]: 25%

Compound: COc1ncc2nc(C)c(=O)n(Cc3cccs3)c2n1
- max response [1]: 26.6%
- AC50 [4]: 5.62 nM [rising, full curve, poor fit]
- max response [3]: 37.7%

Compound: COc1ccc(C(=O)N2CCC3(CCCN(c4ccccn4)C3)CC2)cc1
- max response [1]: 17.7%
- AC50 [4]: 282 nM [rising, full curve, poor fit]
- max response [3]: 23.2%

Compound: O=C(NCCO[N+](=O)[O-])c1cccnc1
- max response [1]: 15.8%
- AC50 [4]: 3160 nM [rising, full curve, poor fit]
- max response [3]: 26.5%

Compound: O=c1cnc2cnc(Oc3cccc(Cl)c3)nc2n1C1CC1
- max response [1]: 26.9%
- AC50 [2]: 708 nM [rising, full curve, poor fit]
- max response [3]: 26.4%

Compound: CN(C)c1ncc2nc(-c3cccc(C#N)c3)c(=O)n(C)c2n1
- max response [1]: 28.7%
- AC50 [4]: 3550 nM [rising, full curve, poor fit]
- max response [3]: 32%

Compound: COc1ncc2nc(C)c(=O)n(CCc3ccccc3)c2n1
- max response [1]: 8.89%
- AC50 [4]: 141 nM [rising, full curve]
- max response [3]: 13%

Compound: Cc1cccc(CNc2ncnc3ccc(-c4ccc(C(=O)N(C)C)cc4)cc23)c1
- max response [1]: 2.33%
- AC50 [4]: 2820 nM [rising, single point]
- max response [3]: 16.4%

Compound: Cn1c(=O)cnc2cnc(Nc3ccccc3)nc21
- max response [1]: 3.51%
- AC50 [4]: 63.1 nM [rising, full curve, poor fit]
- max response [3]: -18.9%

Compound: CS(=O)(=O)N1CCC2(CCN(Cc3nccs3)CC2)CC1
- max response [1]: 20.7%
- AC50 [4]: 63.1 nM [rising, full curve, poor fit]
- max response [3]: 31%

Compound: COc1cccc(Nc2ncc3nc(-c4ccc(Cl)cc4)c(=O)n(C[C@H]4CCCO4)c3n2)c1
- max response [1]: -20.4%
- AC50 [4]: 39800 nM [falling, single point]
- max response [3]: -41.8%

Compound: Cn1cc(-c2nc3cnc(N4CCNCC4)nc3n(CCc3ccccc3)c2=O)c2ccccc21
- max response [1]: -55.7%
- AC50 [2]: 39800 nM [falling, single point]
- max response [3]: -80.8%
